Results taken from PubChem BioAssay AID686979 (National Center for Advancing Translational Sciences (NCATS), 2013).
“And” between values parts separate entries of the source, which are not always exact repeats. Equal values may be shown once. Among all 420,000 compounds or so, about 50,000 (12%) were called active. Inconclusive results, whose numbers are uncertain, are shown with a selection of clear calls. The call rests on the fitted dose curve; in most records, active means well fitted inhibition curve with a large enough effect; inconclusive means small, poorly fitted or top-dose-only effect; inactive means flat fitted curve, though single readings scatter. Where the call is inconclusive, the potency comes from a doubtful curve fit.

Experiment: qHTS for Inhibitors of human tyrosyl-DNA phosphodiesterase 1 (TDP1): qHTS in cells in presence of CPT; further: nearly all actives have a fitted effect of over 55% in size
Details: chicken DT40 Tdp1-/-;hTDP1 cells + 20 nM CPT, ATP luminescence, 48 h; series mostly up to 46.2 µM
Outline: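 Chicken DT40 Tdp1-/- cells complemented with human TDP1, 400 cells/well, exposed to compounds plus 20 nM camptothecin for at least 48 h at 37 C; viability read as ATP content by CellTiter-Glo luminescence.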
Potency means the concentration at half of the fitted maximal effect; tags describe the fitted curve by direction and shape.

SMILES	Potency
Cn1cc(CCCC(=O)NCc2ccc(F)cc2)c2ccccc21	inactive and inconclusive: 29.1 µM [inhibitor, single point]
CC(C)(C)SCCNC(=O)/C=C/c1ccc(F)cc1	inconclusive: 20.6 µM [inhibitor, single point]
O=C(C[N+]1(CC#Cc2ccccc2)CCOCC1)c1ccc(Cl)cc1	inconclusive: 29.1 µM [inhibitor, single point]
CCOc1ccc(-c2cc3nc(C4CCN(C(=O)OC(C)(C)C)CC4)c(C(=O)Nc4cccc(Cl)c4C)cn3n2)cc1	active: 18.4 µM
CC(C)OCCCNc1ccc(N2C(=O)CCCC2=O)cc1[N+](=O)[O-]	inactive
C#CCOC(=O)C(NC(=O)c1ccccc1)=C(C)C	inactive
CCN(C(=O)CSc1n[nH]c(-c2cc(Cl)ccc2OC)n1)C1CCS(=O)(=O)C1 (stereo not given)	inactive
COc1cccc(NC(=O)CSc2nnc(Cc3cccn3C)n2-c2ccc(F)cc2)c1	inconclusive: 29.1 µM [inhibitor, single point]
O=C1NC(NS(=O)(=O)c2ccccc2)(C(F)(F)F)C(=O)N1CCc1ccccc1 (stereo not given)	inactive
COc1ccccc1OCCCC(=O)Nc1nccs1	inactive
CCC(CO)Oc1cc(NC(=O)c2cccc(OC)c2)c2ncn(C(C)C)c2c1 (stereo not given)	inconclusive: 29.1 µM [inhibitor, single point]
C=CCSc1nsc(NC(=O)Nc2ccc(F)cc2)n1	active: 18.4 µM
CC(C)S(=O)(=O)C1=NSC2=NC(=O)/C(=C\c3ccc(-c4ccccc4)o3)C(=N)N21	inactive
CCOC(=O)C(C)Sc1nc(-c2ccco2)cc(C(F)(F)F)c1C#N (stereo not given)	inconclusive: 20.6 µM [inhibitor, single point]
CC(C)(C)c1cc(/C=N/NC(=O)Cc2nc3ccccc3[nH]2)cc(C(C)(C)C)c1O	inconclusive: 29.1 µM [inhibitor, single point]
CC(C)(C)C(=O)NC(=S)Nc1ccc(Cc2ccncc2)cc1	inconclusive: 29.1 µM [inhibitor, single point]
COc1ccc(-c2nc(NC(=O)Cn3ccc(C(F)(F)F)n3)sc2C)cc1	inconclusive: 18.4 µM [inhibitor, single point]
CCOC(=O)c1ccc(NC(=O)c2noc3c2CCCC3)cc1	inconclusive: 29.1 µM [inhibitor, single point]
CC(C)C[C@H](NC(=O)c1nc[nH]c1C(=O)NCc1ccc(CNC(=O)OC(C)(C)C)cc1)C(=O)OCc1ccccc1	inconclusive: 18.4 µM [inhibitor, single point]
CC(C)(C)OC(=O)C[C@H]1C/C=C\C[C@@H](CC(=O)N[C@@H](CO)Cc2ccccc2)C(=O)NC[C@@H](c2ccccc2)OC1=O	inactive
O=S(=O)(Nc1ccc(-c2ccccc2)cc1)c1ccccc1	inconclusive: 16.4 µM [inhibitor, single point]
CCn1c(=O)cc(OCC(=O)NC2CC2)c2ccccc21	inactive
CCN(CC(=O)Nc1ccc2c(c1)OCCO2)C(=O)/C=C/c1cc(Br)ccc1OC	inconclusive: 29.1 µM [inhibitor, single point]

SMILES	Potency
COc1ccc(CN2CCc3c([nH]c4ccccc34)C2)c(OC)c1C	inconclusive: 20.6 µM [inhibitor, single point]
O=C(O)c1ccc(Oc2ccc(S(=O)(=O)c3ccc(C(=O)O)c(C(=O)O)c3)cc2)cc1	inactive
CCN(c1ccccc1)c1ncnc2c1cnn2-c1ccc(OC)cc1	active: 8.2 µM
COC(=O)c1ccc(/C=N/N2CCN(Cc3ccc(C)cc3C)CC2)cc1	inconclusive: 25.9 µM [inhibitor, single point]
CNC(=O)c1nc(C)n(-c2ccc(Cl)cc2Cl)n1	active: 11.6 µM
CCc1ccc(NC(=O)C2CCN(S(=O)(=O)c3ccc4c(c3)CC(C)N4C(C)=O)CC2)cc1 (stereo not given)	active: 16.4 µM
COc1ccc(-c2cc(NC=O)c3ncc(-c4cccc(C(=O)NCCN(C)C)c4)n3c2)cc1	inconclusive: 29.1 µM [inhibitor, single point]
Cc1ccc(S(=O)(=O)c2ncccc2[N+](=O)[O-])cc1	active: 1.16 µM
COc1ccc(NC(=O)CSc2nnc(N)s2)cc1S(=O)(=O)N1CCCCC1	inactive
Cc1cc([N+](=O)[O-])nn1CCCC(=O)Nc1c(C)n(C)n(-c2ccccc2)c1=O	inactive
CCc1ccc2[nH]c3nc(SCc4nnc(-c5ccccc5)o4)nnc3c2c1	inconclusive: 18.4 µM [inhibitor, partial curve]
CC(NCCC(c1ccccc1)c1ccccc1)c1ccccc1 (stereo not given)	active: 5.96 µM and active: 6.51 µM
COc1ccc(Cn2c(CNC(=O)Cc3ccc(OC)c(OC)c3)nc3cccnc32)cc1	inactive
CC(=O)Nc1ccc(S(=O)(=O)NNC(=O)c2cccc(Cl)c2)cc1	inactive
CC1=NNC(=O)C1CC(=O)N/N=C(\C)c1ccco1 (stereo not given)	inactive
CCN1CCN(Cc2ccc(NC(=O)c3cc(NC(=O)c4cc5cccc(OC)c5o4)cc(OC)c3)cc2C(F)(F)F)CC1	active: 7.31 µM and active: 5.8 µM
OCCOCCn1c(CCNc2nc(-c3ccc(F)cc3)cs2)nc2cc(C(F)(F)F)ccc21	inconclusive: 29.1 µM [inhibitor, single point]
COc1cc(CNn2c(C)n[nH]c2=S)cc(Cl)c1OCc1ccc(F)cc1	inactive
Cc1ccc(NS(=O)(=O)c2cccc(C(=O)N3CCN(c4ncccn4)CC3)c2)cc1	inconclusive: 29.1 µM [inhibitor, single point]
CC(=O)N1CCCc2cc(S(=O)(=O)N3CCCC(C(=O)Nc4ccc(F)cc4F)C3)ccc21 (stereo not given)	inconclusive: 25.9 µM [inhibitor, single point]
O=S(=O)(NCCc1nnc2ccc(SCc3cccc(Cl)c3)nn12)c1ccccc1	active: 14.6 µM
Cc1cc(N2CCN(C)CC2)nc2ccc(NC(=O)Nc3ccc(F)cc3)cc12	inconclusive: 23.1 µM [inhibitor, single point]
